This note sets out measurements from PubChem BioAssay AID488969 (Vanderbilt High Throughput Screening Facility, 2010).

The full ranking holds about 110,000 compounds; the median of “z-score” is about -0.1, and the highest 2% start at about 2. Some of the results follow. The source made the active and inactive calls.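 Rule for the calls: active = z-score in the third read window above 3 or below -3; inactive = the rest.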

The experiment deals with Metabotropic glutamate receptor 8 (Rattus norvegicus) (UniProt P70579). In words: rat mGluR8 modulators via GIRK flux, primary screen, cell-based, thallium flux, HTS (AID 488969). The settings on record: HEK293 rat mGluR8, GIRK (G protein-gated inwardly rectifying potassium channel) thallium flux, FluoZin2; at 10 µM; stronger effect = higher value; submaximal glutamate (EC20) added with thallium.
Sequence of UniProt P70579 (P70579 whole entry, looked up): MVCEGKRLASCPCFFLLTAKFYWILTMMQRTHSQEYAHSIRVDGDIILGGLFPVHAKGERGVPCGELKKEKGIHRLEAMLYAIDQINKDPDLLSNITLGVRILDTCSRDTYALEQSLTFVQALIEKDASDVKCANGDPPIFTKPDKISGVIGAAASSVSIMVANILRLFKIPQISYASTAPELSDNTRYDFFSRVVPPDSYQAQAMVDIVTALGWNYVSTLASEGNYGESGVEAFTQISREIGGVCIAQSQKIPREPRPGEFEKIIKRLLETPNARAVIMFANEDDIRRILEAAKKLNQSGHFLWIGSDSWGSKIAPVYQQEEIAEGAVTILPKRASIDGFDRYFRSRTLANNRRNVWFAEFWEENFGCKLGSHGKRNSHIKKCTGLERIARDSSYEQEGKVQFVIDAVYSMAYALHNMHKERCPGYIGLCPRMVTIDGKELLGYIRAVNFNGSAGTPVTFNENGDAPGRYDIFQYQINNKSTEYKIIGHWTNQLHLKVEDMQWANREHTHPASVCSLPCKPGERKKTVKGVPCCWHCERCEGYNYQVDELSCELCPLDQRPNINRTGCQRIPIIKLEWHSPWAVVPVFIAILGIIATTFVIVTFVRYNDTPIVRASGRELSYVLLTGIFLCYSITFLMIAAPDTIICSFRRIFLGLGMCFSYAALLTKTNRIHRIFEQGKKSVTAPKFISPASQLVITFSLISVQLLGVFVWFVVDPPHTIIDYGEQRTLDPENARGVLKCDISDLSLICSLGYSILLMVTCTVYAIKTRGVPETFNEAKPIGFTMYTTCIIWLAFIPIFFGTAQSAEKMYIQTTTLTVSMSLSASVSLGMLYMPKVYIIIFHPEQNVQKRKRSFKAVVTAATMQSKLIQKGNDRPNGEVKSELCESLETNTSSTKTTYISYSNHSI
In the case of `Cc1cc2oc3c(c(=O)c2cc1C)C(c1cccc(Br)c1)N(Cc1ccco1)C3=O` (centres undefined), the z-score is -1.41.
On to `Cc1ccc(P(=O)(OCCN2CCOCC2)C(C)(C)C)o1` (centres undefined), for which the z-score stood at 0.733.
Compound `C=CCc1ccc(OCCCCN2CC(C)OC(C)C2)c(OC)c1` (centres undefined) showed a z-score of 0.314.
For the compound `O=C(CSc1ccc(Cl)cc1)Nc1ccc(N2CCN(c3ccccc3)CC2)c(F)c1`, the z-score was -0.0573.
As for `O=C(Cc1ccccc1)NC1c2ccccc2-c2ccccc21`, the z-score is -0.242.
As for `COCCOc1cc(NC(=O)c2sccc2Oc2ccc([N+](=O)[O-])cc2F)c(Cl)cc1Cl`, the figure is -0.513.
For `CCOC(=O)c1sc(=S)n(C)c1NC(=O)c1ccccc1`, the z-score was -0.0971.
As for `O=C(/C=C/c1cccc([N+](=O)[O-])c1)NCCSc1ccccc1`, the figure is -0.3; as for `CCN1C(=O)/C(=C2/C=Cc3ccccc3N2C)OC1=S`, 1.63; as for `COc1c(OC(C)=O)ccc(/C=C/c2ccc3cccc(OCc4ccccc4)c3n2)c1[N+](=O)[O-]`, -0.408.
`O=C(CSc1nnnn1-c1ccc(O)cc1)Nc1ccc(N2CCOCC2)c(Cl)c1`: the z-score was -0.381.
For the compound `COc1nc(-c2ccccc2Cl)ccc1C#N`, the z-score was -0.243.
As for `CCOC(=O)c1c(C)c(C#N)c2c3ccccc3ccn12`, the figure is -0.298.
For `COc1ccccc1-n1c(CNc2ccc(F)cc2)nnc1SCC(=O)Nc1cc(C)on1`, the z-score was -0.964.
On to `CCCCCCCCCCNC(=O)C(=O)Nc1ccccn1`, for which the z-score was found to be 0.816.
To `Cc1cccc(-c2nc3ccccc3c(=O)n2NC(=O)Cc2ccc(Cl)cc2)c1` belongs -0.0794; to `CCOC(=O)C1CCN(C(=O)NC23CC4CC(CC(C4)C2)C3)CC1`, active: 3.31.
As to `COc1ccc(C)cc1NC(=O)C(=O)N/N=C(\C)CC(=O)Nc1cccnc1`, the z-score was -0.053.
In the case of `O=C(CCC(=O)NCCCc1ccccc1)NCCCc1ccccc1`, the z-score was -0.112.
As to `CCN(CC)CCNC(=O)C(C)c1nn(C)c(=O)c2ccccc12` (centres undefined), the z-score is -0.107.
For the compound `O=C(NC1CCCCCCC1)c1ccc(S(=O)(=O)N2CCCC2)cc1`, the z-score was -0.277.
As to `Cc1[nH]nc2c1C(c1cccnc1)N(c1ccc(Br)cc1)C2=O` (centres undefined), the z-score was -0.132.
To `CCC(C)NS(=O)(=O)c1ccc(S(=O)(=O)N(CC(=O)Nc2ccccc2)Cc2ccco2)cc1` (centres undefined) belongs -0.166; to `Cc1cc(C(=O)CN2C(=O)NC(Cc3c[nH]c4ccccc34)C2=O)c(C)n1C` (centres undefined), 0.108.
Consider `COc1ccc(C(=O)c2no[n+]([O-])c2C(=O)c2ccc(OC)cc2)cc1`, for which the z-score was -0.148.
Take `COCCn1c(SCC#N)nnc1-c1ccc(OC)cc1`: the z-score is -0.0813.
To `O=C(CCNc1cc(Cl)cc(Cl)c1)c1ccco1` belongs 0.00404; to `CCOC(=O)C1=C(O)/C(=C\c2ccc(CNS(=O)(=O)c3ccc(Br)cc3)o2)N=C1C`, -0.842.
Regarding `CCC(=O)NC(NC(=S)Nc1ccc(S(N)(=O)=O)cc1)C(Cl)(Cl)Cl` (centres undefined), the z-score is -0.242.
